Results from the antibiotic and cytotoxicity screens of Wong et al. (2023).
The other results are listed elsewhere or left out.

Tests used:
[1] = test system: HSkMC (human skeletal muscle cells); assay: cytotoxicity call (relative viability < 0.9); conditions: 10 µM
[2] = test system: HepG2; assay: cytotoxicity call (relative viability < 0.9); conditions: 10 µM
[3] = test system: S. aureus RN4220; assay: growth inhibition call (relative growth <= 0.2); conditions: 50 µM

Structure (SMILES)	cytotoxicity call [1]	cytotoxicity call [2]	growth inhibition call [3]
COc1ccc(NC(=O)Nc2cccc3c2O[C@@H](CN(C)Cc2ccc(-c4ccccc4)cc2)[C@@H](C)CN([C@@H](C)CO)C3=O)cc1	inactive	inactive	inactive
C[C@H](CO)N1C[C@H](C)[C@H](CN(C)S(C)(=O)=O)Oc2ccc(NC(=O)Cc3cn(C)c4ccccc34)cc2C1=O	inactive	inactive	inactive
CC(=O)N[C@H]1C(=O)SC1(C)C	inactive	inactive	inactive
CCOC(=O)/C(=N/O)C1=NNC(=N)SC1	inactive	inactive	inactive
CC(=O)[C@@H](OC(=O)CS(C)(=O)=O)C(=O)NCc1ccccc1	inactive	inactive	inactive
CC1=CC(=O)C2=C(C)CCC3C(C)C(=O)OC3C12 (centres undefined)	inactive	inactive	inactive
OC[C@H]1O[C@@H](n2cnc3c(NCc4ccco4)ncnc32)[C@H](O)[C@@H]1O	inactive	active	inactive
C[C@@H]1CN([C@H](C)CO)C(=O)Cc2cc(NC(=O)Nc3ccc(F)cc3)ccc2O[C@@H]1CN(C)S(=O)(=O)c1cn(C)cn1	inactive	inactive	inactive
CC(C)CC#Cc1ccc2c(c1)O[C@@H](CN(C)C(=O)Cc1ccccn1)[C@@H](C)CN([C@H](C)CO)S2(=O)=O	inactive	inactive	inactive
COc1ccc(S(=O)(=O)N(C)C[C@H]2OCCCC[C@@H](C)Oc3ccc(NC(=O)CCC(F)(F)F)cc3C(=O)N([C@@H](C)CO)C[C@H]2C)cc1	inactive	inactive	inactive
Cc1ccc(S(=O)(=O)Nc2ccc3c(c2)C(=O)N([C@H](C)CO)C[C@H](C)[C@@H](CN(C)Cc2ccc(Cl)c(Cl)c2)OCCCC[C@@H](C)O3)cc1	inactive	inactive	inactive
O=C1O[C@H](c2ccccc2)[C@H](c2ccccc2)N2[C@H]1[C@@H](C(=O)N1CCCCCCC1)[C@]1(C(=O)Nc3ccc(C#CC4=CCCCC4)cc31)[C@H]2c1ccc(O)cc1	inactive	inactive	inactive
Cc1cc(O)cc(=O)o1	inactive	inactive	inactive
C[C@@H]1CC[C@H](C)N1c1cc(C(F)(F)F)cc(C(F)(F)F)c1	inactive	inactive	inactive
Cc1ccc(S[C@]2(C(=O)NC(C)C)CC(=O)N(Cc3cc(C(F)(F)F)cc(C(F)(F)F)c3)[C@@H]2c2ccc(CO)cc2I)cc1	inactive	inactive	inactive
C[C@H]1CN([C@@H](C)CO)C(=O)CCCn2cc(nn2)CO[C@@H]1CN(C)S(=O)(=O)c1cccc(C#N)c1	inactive	inactive	inactive
O=C(C[C@H]1CC[C@H]2[C@@H](COC[C@@H](O)CN2S(=O)(=O)c2ccc(F)cc2)O1)NCCN1CCCCC1	inactive	inactive	inactive
C[C@@H]1CCCCO[C@@H](CN(C)Cc2ccc(C(F)(F)F)cc2)[C@@H](C)CN([C@H](C)CO)C(=O)c2cc(NC(=O)Nc3ccc(F)cc3)ccc2O1	inactive	inactive	inactive
C[C@@H]1CN([C@@H](C)CO)C(=O)c2cc(NC(=O)NC3CCCCC3)ccc2O[C@@H](C)CCCCO[C@H]1CN(C)C(=O)CCC(F)(F)F	inactive	inactive	inactive
C[C@H]1CN([C@@H](C)CO)C(=O)c2cc(NC(=O)CCN3CCOCC3)ccc2O[C@@H]1CN(C)Cc1ccccc1	inactive	inactive	inactive

Structure (SMILES)	cytotoxicity call [1]	cytotoxicity call [2]	growth inhibition call [3]
C=C(C)Cn1c(N2CCC(C(N)=O)CC2)nc2c1c(=O)n(C)c(=O)n2C	inactive	inactive	inactive
CO[C@@H](CN(C)C(=O)c1ccc2c(c1)OCO2)[C@@H](C)CN([C@@H](C)CO)S(=O)(=O)c1ccc(F)cc1	inactive	inactive	inactive
C[C@@H]1CN([C@H](C)CO)C(=O)Cc2cc(NS(=O)(=O)c3cn(C)cn3)ccc2O[C@@H]1CN(C)Cc1ccc(C(=O)Nc2ccccc2N)cc1	inactive	inactive	inactive
Cc1noc(C)c1NC(=O)Nc1cccc2c1O[C@@H](CN(C)S(C)(=O)=O)[C@@H](C)CN([C@@H](C)CO)C2=O	inactive	inactive	inactive
COc1ccc(NC(=O)Nc2ccc3c(c2)C(=O)N([C@@H](C)CO)C[C@@H](C)[C@@H](CN(C)C(=O)CCC(F)(F)F)OCCCC[C@@H](C)O3)cc1	inactive	inactive	inactive
COc1ccc([C@@H]([C@H](Cc2ccccc2)OC(C)=O)N2C[C@@H]3[C@H]([C@@H]2Cc2ccccc2)N(C)O[C@@]3(O)[C@@H](O)c2ccccc2)cc1	inactive	inactive	inactive
C[C@H](CO)N1C[C@H](C)[C@H](CN(C)Cc2ccncc2)OCCCC[C@H](C)Oc2ccc(NC(=O)Nc3cccc4ccccc34)cc2C1=O	inactive	inactive	inactive
C[C@H]1CN([C@@H](C)CO)C(=O)c2c(c3ccccc3n2C)-c2ccccc2CO[C@@H]1CN(C)C(=O)Nc1ccccc1	inactive	inactive	inactive
C[C@@H]1CN([C@@H](C)CO)S(=O)(=O)c2ccc(-c3ccc(C(=O)N(C)C)cc3)cc2O[C@@H]1CN(C)C(=O)C1CCOCC1	inactive	inactive	inactive
C[C@H]1CN([C@@H](C)CO)C(=O)c2cc(NC(=O)Cc3cn(C)c4ccccc34)ccc2O[C@H]1CN(C)CC1CCCCC1	inactive	inactive	inactive
NC(=O)N1Cc2nccn2C[C@H](Cn2ncccc2=O)C1	inactive	inactive	inactive
CCCN(C)C[C@H]1OCCCC[C@@H](C)Oc2ccc(NC(=O)C3CCCCC3)cc2C(=O)N([C@H](C)CO)C[C@@H]1C	inactive	inactive	inactive
C[C@@H]1CCCCO[C@@H](CN(C)C(=O)Nc2cccc3ccccc23)[C@H](C)CN([C@H](C)CO)C(=O)c2cc(NC(=O)Nc3ccc(F)cc3)ccc2O1	inactive	inactive	inactive
C[C@H](CO)N1C[C@H](C)[C@@H](CN(C)Cc2ccc(Cl)c(Cl)c2)OCCCC[C@H](C)Oc2ccc(NS(=O)(=O)c3cn(C)cn3)cc2C1=O	inactive	inactive	inactive
C[C@H]1CN([C@@H](C)CO)C(=O)CCCn2cc(nn2)CO[C@H]1CN(C)C(=O)Nc1ccc(N2CCCCC2)cc1	inactive	inactive	inactive
CNC[C@H](O)c1ccc(O)c(O)c1	inactive	inactive	inactive
CC(C)CNc1nc(=O)cn[nH]1	inactive	active	inactive
Cn1cnc(S(=O)(=O)N[C@H]2C=C[C@@H](CC(=O)Nc3ccccc3)O[C@@H]2CO)c1	inactive	inactive	inactive
O=C(O)c1ccco1	inactive	inactive	inactive
CCS(=O)(=O)Nc1ccc2c(c1)C(=O)N(C)[C@@H]1CC[C@@H](CC(=O)N[C@@H]3CCN(Cc4ccccc4)C3)O[C@H]1CO2	inactive	inactive	inactive

Structure (SMILES)	cytotoxicity call [1]	cytotoxicity call [2]	growth inhibition call [3]
C[C@H](CO)N1C[C@H](C)[C@@H](CN(C)C(=O)Nc2ccc(F)cc2)OCCCC[C@H](C)Oc2ccc(NC(=O)Nc3ccccc3)cc2C1=O	inactive	inactive	inactive
CC(C)NC(=O)N(C)C[C@H]1OCc2cn(nn2)CCCC(=O)N([C@@H](C)CO)C[C@@H]1C	inactive	inactive	inactive
C[C@@H]1CN([C@@H](C)CO)C(=O)Cc2cc(N(C)C)ccc2O[C@@H]1CN(C)S(=O)(=O)c1ccc(Cl)cc1	inactive	inactive	inactive
C[C@H]1CN([C@@H](C)CO)C(=O)c2cccc(NC(=O)Nc3ccc(C(F)(F)F)cc3)c2O[C@H]1CN(C)C(=O)Nc1ccccc1	inactive	inactive	active
C(=CN1CCN(C(c2ccccc2)c2ccccc2)CC1)Cc1ccccc1	inactive	inactive	inactive
C[C@@H]1CN([C@@H](C)CO)C(=O)c2cccc(NC(=O)C3CCOCC3)c2O[C@@H]1CN(C)Cc1ccncc1	inactive	inactive	inactive
O=C(NO)c1cccc(C(=O)N/N=C/[C@H](O)[C@H](O)[C@@H](O)[C@@H](O)CO)c1	inactive	inactive	inactive
C=CCOC(=O)[C@H]1[C@@H]2C(=O)O[C@@H](c3ccccc3)[C@@H](c3ccccc3)N2[C@@H](c2ccc(OCCOC(=O)NCCCCCC(=O)NO)cc2)[C@@]12C(=O)Nc1ccccc12	inactive	inactive	inactive
c1cc(-c2nn[nH]n2)ccc1OCc1nn[nH]n1	inactive	inactive	inactive
Clc1ccc(-c2cccs2)nn1	inactive	inactive	inactive
Nc1ccc(C(=O)O)c(O)c1	inactive	inactive	inactive
C[C@@H]1CN([C@@H](C)CO)S(=O)(=O)c2ccc(C#CC3(O)CCCC3)cc2O[C@@H]1CN(C)C(=O)Nc1ccc(F)cc1	inactive	inactive	inactive
COCC(=O)N1C[C@H](C)[C@@H](OC)CN(C)C(=O)c2ccc(NC(=O)c3cc(C)on3)cc2OC[C@H]1C	inactive	inactive	inactive
C[C@H](CO)N1C[C@H](C)[C@H](CN(C)C(=O)Cc2ccccc2)OCCCC[C@H](C)Oc2ccc(NC(=O)Cc3ccccc3)cc2C1=O	inactive	inactive	inactive
CN1CCN(C(=O)C[C@H]2CC[C@@H]3[C@H](COC[C@H](O)CN3CC3CCCC3)O2)CC1	inactive	inactive	inactive
C[C@H]1CN([C@@H](C)CO)C(=O)c2cc(NC(=O)Nc3ccc(C(F)(F)F)cc3)ccc2O[C@@H]1CN(C)C(=O)Nc1ccc(C(F)(F)F)cc1	inactive	inactive	inactive
CN1CCN(C(=O)C[C@H]2C=C[C@H](NC(=O)Cc3ccccn3)[C@@H](CO)O2)CC1	inactive	inactive	inactive
C[C@@H]1CN([C@H](C)CO)C(=O)c2cc(NC(=O)Nc3ccc(C(F)(F)F)cc3)ccc2O[C@@H](C)CCCCO[C@H]1CN(C)C	inactive	inactive	inactive
